We go through 44 compounds from PubChem BioAssay (NCI).

Where “and” joins values, the source holds several entries; their conditions need not be identical. Identical values can stand only once.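 Each compound was tested at five concentrations against cells in 96-well plates for 48 hours. GI50: concentration for 50% inhibition of growth. The concentration for full growth arrest is given as TGI.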 Peptide text beside a SMILES is read from it. * marks the point of attachment. Boc = CC(C)(C)OC(=O)*

The subject of this assay is NCI-H322M lung. Put plainly: inhibition of tumour cell growth, NCI panel, 48 h.
`Fc1ccc(/C=N/n2c(-c3ccc(F)c(Cl)c3)nn(CNc3ccccc3C(F)(F)F)c2=S)cc1`: the GI50 is 63.1 µM and the TGI was greater than 100 µM.

For `O=c1[nH]cc(COCCCO)c(=O)[nH]1`, the TGI is greater than 100 µM.

`CCN(CC)CC1c2ccccc2C(CNc2ccccc2)N1C` (configuration not stated): the TGI is greater than 100 µM.

With `CCOC(=O)C1=C(C)N(c2ccc(Cl)cc2)[C@]2(C#N)C(O)=C(Cl)C(Cl)=C(O)[C@]12C#N`, the GI50 is greater than 100 µM and the TGI was greater than 100 µM.

As to `Cc1cc(S(=O)(=O)/N=C(/N)Nc2ccccc2O)c(SCc2ccccc2)cc1Cl`, the GI50 is 19.1 µM and the TGI was 36.8 µM.

`COc1ccc(C(=O)/C=C/c2ccc(O)c(O)c2)c(OC)c1` came in with a TGI of 26.2 µM.

On to `O=C1/C(=C/c2ccccc2[N+](=O)[O-])Cc2ccccc21`, for which the GI50 is 5.52 µM and the TGI is 32.7 µM.

`O=C1NC(=O)C2C(=O)NC(=O)C1C2c1c(Cl)cccc1Cl` (configuration not stated): the TGI was greater than 100 µM.

Compound `C=CCN1C(=O)/C(=C/c2cccs2)N=C1SC/C=C/C` gave a TGI greater than 100 µM.

Compound `CCc1nn(CN2CCOCC2)c(=S)n1/N=C/c1ccc(-c2ccc(Cl)cc2)o1` registered a TGI greater than 100 µM.

On to `COc1ccc(-c2cc(Cc3cccs3)c(=O)[nH]n2)cc1`, for which the TGI was greater than 100 µM.

As for `Nc1n[n+](CC(=O)c2ccccc2)c2sc(-c3ccccc3)nn12`, the TGI turned out to be 89.4 µM.

As to `Nc1ccn(C2C=C(CO)C(O)C2O)c(=O)c1` (configuration not stated), the TGI is greater than 625 µM.

`CCCN(CCS(C)(=O)=O)Cc1ccc(-c2ccc3ncnc(Nc4ccc(OCc5cccc(F)c5)c(Cl)c4)c3c2)o1`: the GI50 was 0.781 µM and the TGI was greater than 25 µM.

On to `O=C1c2c(c3c4ccccc4[nH]c3c3ccc4ccccc4c23)C(=O)N1CCN1CCNCC1`, for which the GI50 was 1.54 µM and the TGI turned out to be 2.94 µM.

In turn, `CC(C)(C)OC(=O)N/N=C(/N)Cc1ccc(Cl)cc1` gave a TGI greater than 100 µM.

As to `O=c1ssc(=Nc2ccccc2)n1-c1ccccc1`, the TGI was greater than 100 µM.

As to `CC(C)(C)OC(=O)NC(Cc1ccccc1)OCc1ccccc1` (configuration not stated), the TGI is 44.1 µM.

In turn, `CC1=NNC(=O)C1C1CC(c2c[nH]c3ccccc23)=NNC1=O` (configuration not stated) yielded a TGI greater than 100 µM.

`COC1/C=C/C(C)C(C(C)C(OC)C(C)CCC(=O)C(C)C(C/C=C/N(C)C=O)OC)OC(=O)C=CC2OC2(C)CC(OC)C(OC)C2=CC(=O)O[C@@H](C(C)C(OC)CC(OC)/C=C/C(C)C(O)C1)[C@H]2O` (some centres not stated) gave a TGI of 0.0564 µM.

On to `CC1=NN(C(=O)c2ccncc2)C(=O)C1`, for which the TGI was greater than 100 µM.

As for `CC1CC(C)C(C#N)N(C)c2ccccc21` (configuration not stated), the TGI was greater than 100 µM.

The compound `CC(=O)Nc1ccc(SC#N)c2c(NC(C)=O)cccc12` gave a TGI greater than 100 µM.

In the case of `O=C(/C=C/c1cc2ccccc2[nH]c1=O)/C=C/c1cc2ccccc2[nH]c1=O`, the GI50 is greater than 100 µM and the TGI was greater than 100 µM.

As for `c1cnn2ncc(-c3ccnc(NCCCN4CCOCC4)n3)c2c1`, the GI50 is 7.17 µM and the TGI is greater than 25 µM.

`O=C1OC(Cc2ccccc2)(N2CCCC2=O)C1c1ccccc1` (configuration not stated): the TGI was greater than 100 µM.

As for `NC(N)=NCCCC(NC(=O)c1cccc2c(=O)c3ccccc3[nH]c12)C(=O)O` (configuration not stated), the TGI was greater than 100 µM.

On to `CC1(C)C=Cc2c(cc(O)c3c(=O)c4cc(Cl)ccc4[nH]c23)O1`, for which the TGI is greater than 10 µM.

In the case of `FC(F)(F)c1ccc(-c2cnc(-c3ncon3)nc2NC2CCCCCC2)cc1`, the GI50 was greater than 100 µM and the TGI is greater than 100 µM.

Compound `CN(C)c1ccc(NN=C2SC(=Nc3ccccc3)C(=Nc3ccccc3)S2)cc1` registered a TGI greater than 100 µM.

With `O=C(Nc1ccc(OCc2nnc(-c3ccc(Cl)cc3)o2)c(F)c1)Nc1ccc(Cl)c(C(F)(F)F)c1`, the GI50 was 2.99 µM and the TGI came to 16.9 µM.

In turn, `C/C=C1\CN2CCc3c([nH]c4ccccc34)C2CC1C(=O)OC` (configuration not stated) came in with a TGI greater than 322 µM.

As for `CCCNC(=O)C(C)C1CCC2(C)C=CC(=O)C(C)=C2C1O` (configuration not stated), the TGI was greater than 100 µM.

Turning to `NCCSS(=O)(=O)CCN`, the TGI is greater than 100 µM.

`CC(=O)Oc1cc2c(cc1OC(C)=O)OCC(c1ccccc1)C2` (configuration not stated): the TGI came out at 64.5 µM.

Take `CCN(CC)c1ccc2cc(C(=O)Nc3ccc4[nH]c(C(=O)N5C[C@@H](CCl)c6c5cc(OC(=O)Nc5ccccc5)c5[nH]cc(C)c65)cc4c3)oc2c1`: the TGI was greater than 1000 µM.

In the case of `CC(C)(C)OC(=O)NC(Cc1ccc(O)cc1)C(=O)N1CCCC1C(=O)O` (stereo not drawn) (Boc-Tyr-Pro-OH; configuration not given here), the TGI is greater than 100 µM.

For the compound `CCOC(=O)C1C(c2ccc3c(c2)OCO3)c2c([nH][nH]c2=O)CC1(C)O` (configuration not stated), the TGI is greater than 100 µM.

With `C=CC(=O)Nc1cccc(Oc2nc(Nc3ccc(N4CCN(C)CC4)cc3)nc3ccsc23)c1`, the GI50 is 0.512 µM and 1.31 µM; the TGI was > 10 µM and 14.4 µM.

As to `CCC(C=O)P1(=O)OC(C)(C)CN1C(C)(C)C` (configuration not stated), the TGI is greater than 100 µM.

Turning to `O=C1OCC2OC(=O)c3cc(O)c(O)c(O)c3-c3c(O)c(O)c(O)c4c3C(=O)OC(C2OC(=O)c2cc(O)c(O)c(O)c2-c2c1cc(O)c(O)c2O)C1OC(=O)c2c-4c(O)c(O)c(O)c2[C@@H]1C(O)C(O)C(O)C(O)CO` (some centres not stated), the TGI was determined as 32.3 µM.

For the compound `C/C(=C\c1ccc2ccccc2c1)[N+](=O)[O-]`, the GI50 is 3.96 µM and the TGI turned out to be 14.2 µM.

For the compound `CCn1c2ccccc2c2ccc3c(c21)C(=O)C=CC3=O`, the TGI worked out at 65.2 µM.

Take `COc1ccc(-c2cc(-c3ccc(C)cc3)nc3nc(=S)[nH]c(N)c23)cc1`: the GI50 is 27.9 µM and the TGI worked out at 75.6 µM.
